# Data from the RNAGym collection of RNA variant scans (doi:10.1093/nar/gkz1192).
# The source gives no read counts; variants with many changes may rest on few reads.
# B1: CPEB3 Ribozyme (parent)
# chain: UAACAGGGGGCCACAGCAGAAGCGUUCACGUCGCAGCCCCUGUCAGAUUCUGGUGAAUCUGCGAAUUCUGCUGUAUAUCUC
# Variants of: B1
# Assay: self-cleavage, relative activity (ratio to wild type); higher = more cleavage; in vitro, sequencing
# In short: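 Barcoded CPEB3 ribozyme mutants, produced by rounds of error-prone PCR, self-cleaved while being transcribed with T7 RNA polymerase for 5 hours at 37°C and during a subsequent 15 min DNase I step before EDTA was added. Sequencing of template-switched cDNA on Illumina gave cleaved and total reads, and DNA sequencing assigned barcodes to variants. Each variant's relative activity is its cleaved/total read fraction divided by the unmutated ribozyme's fraction, averaged across three batches. A variant needed a minimum of 5 reads.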
row,Variant,self-cleavage
1,U41A A64U U76C,0.14
2,U41A G73U U80C,0.39
3,U41A A47G A65G U69C,0.17
4,C40A A45G A65U,0.43
5,C38U U41C U48C,0.54
6,C40U C59A A65G,0.1
7,C39A U51G A57G G70A U72A U80C,0.05
8,C38U U43A A56G U60A,0.29
9,C38U U54G C62U U76C,0.11
10,C40U C44A G55A U66C,0.04
11,C40U U58C A65G,0.15
12,C39A U41C U67C,0.14
13,C38G A57G U74C,0.25
14,U41A U54C A65G,0.22
15,C40G A47G U51A G55A U60C,0.16
16,U41C A45G G61A A64C,0.18
17,C39U U43A U72C U74C U78C,0.96
18,C40U U48C C59U C81U,0.09
19,U41A U43A U72C U80A,0.19
20,U41C A45G U48G U51C,0.41
21,U41A U67C A77G,0.16
22,U41C A45U U49C U60A A64G,0.14
23,C38U U48A U80C,0.21
24,U41A C68A C81U,0.15

row,Variant,self-cleavage
1,C39U A45G G63A,0.51
2,U41A U43A A57G A64G A65G U72C,0.08
3,C40U A45G U51C,0.53
4,C40A A45U A56U A77G,0.14
5,U41A U51A U72A,0.25
6,C40A C50A A56G A77G,0.1
7,U41A U54C U76A,0.1
8,C40U U48C U76C,0.2
9,C38U A47G U78C C81G,0.53
10,C39U A56G U78A,0.33
11,C39U U48A U78A,0.16
12,U41A A47G U54A A65G U67C U72C,0.03
13,C37U U48A A75G,0.31
14,U41A A64G U72C U80C,0.09
15,C38U C50U U67C,0.12
16,C40U U48C U54A U67A,0.16
17,C38A U72A U78C,0.18
18,C39A U48C U69G U72C,0.08
19,U41C A47G U54G,0.57
20,C39A U60C G73C,0.53
21,C40U U43C G53U,0.3
22,C40G U43C A77G,0.2
23,C38G G52C A75U,0.15
24,C38U A47G C50A C62G U74A,0.16

row,Variant,self-cleavage
1,C37U U51A U69C,0.12
2,C39A A47G A57G,0.08
3,C40U A45U U60C,0.18
4,C39A C40U U54C U67G U69C U80A,0.08
5,U41A U49C A56G U72A,0.29
6,C38A G42A U78G U80A,0.3
7,C40A U43C G53A,0.14
8,C38U U69C U78C,0.56
9,U41C A47G A77U,1.16
10,C38A C40U U80C,0.29
11,U41A U48C U60C,0.4
12,C40U U43A C44G U58C,0.26
13,U41A U66C U76C,0.1
14,C37U U72G U80A,0.4
15,U41A U58A U60A U66C U72C U80C,0.03
16,U41A G46U C62U U72C,0.14
17,U41A A56U U66A U80C,0.16
18,U41A U43C U54A,0.43
19,C39A A45U G46C G53A A77G,0.21
20,U41C A56G C62U U72C U76A,0.31
21,U41A A47C U51C U66A U78C,0.05
22,C38A U51A U67A,0.13
23,U41A A47G G53A U78C,0.06
24,C40U U43C U67C,0.52

row,Variant,self-cleavage
1,C38G U69C U72C,0.11
2,U41A A45G A47G U69A,0.33
3,U41A U43C G46U A64G U66C U72C,0.06
4,C40A U41A A45C,0.33
5,U41A U51A A64G U80C,0.26
6,C40A U48A G52A U69A U72C U78C,0.06
7,C40U U51C A65G,0.1
8,U41A U51C U69A U74A,0.09
9,U41A A45G U54C,0.15
10,U41A G55U A64G,0.18
11,C37U U43C U51C A64G U74C,0.2
12,U41A U58A U80C,0.18
13,U41A U48C U58C A64G,0.05
14,U41C A47G U51G U69A U78C,0.42
15,C39A U41C A47U,0.15
16,U41A U58A U67A,0.18
17,C40U U43C U48C U60C,0.08
18,C38U G63U U67C A75G,0.09
19,C39A U58A U69A,0.33
20,U41A U43C U60A U69C A77G,0.19
21,U41C A47G A56G A57G,0.47
22,C37U U41A U43A U58C,0.09
23,U41A U51A U80C,0.16
24,U41C A45G U48A U49C U72C A77G U78C,0.16

row,Variant,self-cleavage
1,C38A G42A U49A U67C U74C,0.09
2,C40U G52C A64C,0.19
3,C40U U74A C79A,1.22
4,U41C A56G C59U U72C,0.25
5,U41C A56G C59U U72A,0.06
6,U41A A47G A57G U66C,0.17
7,C40U U66C U72C,0.16
8,U41C A56G A57U U67A,0.15
9,C40A U41A U54C,0.22
10,U41A U51A U60C U80C,0.35
11,C37U A64G U66C,0.11
12,C39A U41A U76G U78C,0.25
13,U41A A64U U72A,0.08
14,C40U U43C U49G,0.09
15,C38U A56G U67C,0.13
16,C37U U60G C81A,0.12
17,U41A U43C U49C,0.13
18,C40U U60A G63U,0.37
19,U41A C68A A75C,0.08
20,U41A A65G U67C,0.3
21,U41A U49C C68A,0.16
22,C37U U48G U49C A64U G73U,0.09
23,U41C A45U U74C,0.72
24,U41A U72A U74C A77G,0.14

row,Variant,self-cleavage
1,C39U U41C A47G,0.75
2,U41A U54A U72A,0.07
3,U41A A45G U78G,0.28
4,U41A U49A U72C,0.44
5,C37U U60A U66C,0.11
6,U41A A56G U72C,0.36
7,C40A A45C A57U A65G U67C,0.08
8,C40U A47G U51C,0.23
9,C38U A47C U49A A65G,0.08
10,C40A U60C U78A,0.2
11,C39G A57U U67C,0.05
12,C39U C40U U60C C81A,0.1
13,C38U U54A U78A,0.67
14,C40A U60C G70A U76A,0.08
15,C38G U58G U69C U80A,0.18
16,U41A A45C A75U U78A,0.25
17,C39U C40U U58A U69C,0.18
18,C39U G46U A64G U72A A75G,0.05
19,C38U U41A U60C U80C,0.2
20,U41A U72C U76A,0.1
21,C40U U51C A65G U72C,0.1
22,U41C A56G A64G U74A,1.04
23,U41C A45U A47G A56G,0.24
24,U41A G61C G70C,0.15

row,Variant,self-cleavage
1,C40U U41C A47U U51C G55C,0.14
2,U41A U49C U51A A56U C59U U69A U72A,0.05
3,U41A U51C A57G,0.2
4,C39A A45U G46C A64G A77G,0.18
5,C40U U43A U66C U80C,0.2
6,U41A U48C U60C C62U,0.08
7,C40G A56G A65G U80G,0.36
8,U41C A47U A56G,0.35
9,U41C A45U U51A U72C,0.47
10,C37U U43C U48A A65U,0.07
11,C39U U49C A56G U69A,0.34
12,C38A U41A A64U C68U U72C,0.05
13,U41A A57U U74C,0.1
14,U41A A45C A75U U76C,0.13
15,C39A C50U A57G A64U U69A,0.07
16,C40A A64G U80A,0.12
17,C38A A45U U67G U69A,0.06
18,C39U U48C U72A,0.27
19,C39U G63U U67A,0.25
20,U41A A56U U60G U69C G70A,0.06
21,U41A U43C U80G,0.28
22,U41A G61A U80C,0.23
23,U41A G53A U60A,0.15
